# Results published in paper PMC12820563.
# Some of the results follow. The list includes weakly bound sequences.
# Molecular target: T1, MBP-FoxP3dN (UniProt Q99JB6)
# T1 sequence: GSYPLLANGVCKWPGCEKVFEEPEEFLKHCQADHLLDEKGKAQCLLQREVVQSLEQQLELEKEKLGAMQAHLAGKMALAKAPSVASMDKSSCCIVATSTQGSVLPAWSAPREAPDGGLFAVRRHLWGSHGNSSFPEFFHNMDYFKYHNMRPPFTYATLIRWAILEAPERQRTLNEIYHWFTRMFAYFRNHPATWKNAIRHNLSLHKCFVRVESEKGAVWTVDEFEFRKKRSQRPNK
# Assay: PD-seq (MBP pull-down with sequencing)
# Settings: 20 mM Tris-HCl pH 7.5, 100 mM NaCl, 1.5 mM MgCl2, 0.4 uM protein, 0.1 uM dsDNA library, 30 min, room temperature, amylose pull-down; high values mean tight binding; double strand, one strand shown
row,Sequence,binding signal (RPM ratio (pull-down/input))
1,GATGATTGTTCTCCCAGCTGATGAATTGTCTGGGTCGAGTAAACAAATTTTCCTAATCTTTCTGTTCAAGCGCCATCTAC,0.263
2,GATGATTGTTCTCCCAGCTGATGAATTAGCCGGCTCGAGTAAACAAATTTTCCTAATCTTTCTGTTCAAGCGCCATCTAC,0.203
3,GATGATTGTTCTCCCAGCTGATGAATTTTGGTTCTCGAGTAAACAAATTTTCCTAATCTTTCTGTTCAAGCGCCATCTAC,0.966
4,GATGATTGTTCTCCCAGCTGATGAATTCTGGTACTCGAGTAAACAAATTTTCCTAATCTTTCTGTTCAAGCGCCATCTAC,0.502
5,GATGATTGTTCTCCCAGCTGATGAATTCGCTATATCGAGTAAACAAATTTTCCTAATCTTTCTGTTCAAGCGCCATCTAC,0.651
6,GATGATTGTTCTCCCAGCTGATGAATTCCGCTATTCGAGTAAACAAATTTTCCTAATCTTTCTGTTCAAGCGCCATCTAC,2.85
7,GATGATTGTTCTCCCAGCTGATGAATTGTAGACTTCGAGTAAACAAATTTTCCTAATCTTTCTGTTCAAGCGCCATCTAC,0.607
8,GATGATTGTTCTCCCAGCTGATGAATTGCTGAGTTCGAGTAAACAAATTTTCCTAATCTTTCTGTTCAAGCGCCATCTAC,0.686
9,GATGATTGTTCTCCCAGCTGATGAATTAAAAGCATCGAGTAAACAAATTTTCCTAATCTTTCTGTTCAAGCGCCATCTAC,0.976
10,GATGATTGTTCTCCCAGCTGATGAATTTGGATAGTCGAGTAAACAAATTTTCCTAATCTTTCTGTTCAAGCGCCATCTAC,0.656
11,GATGATTGTTCTCCCAGCTGATGAATTTCTTATGTCGAGTAAACAAATTTTCCTAATCTTTCTGTTCAAGCGCCATCTAC,0.657
12,GATGATTGTTCTCCCAGCTGATGAATTGTATTGGTCGAGTAAACAAATTTTCCTAATCTTTCTGTTCAAGCGCCATCTAC,4.59
13,GATGATTGTTCTCCCAGCTGATGAATTTTCTACGTCGAGTAAACAAATTTTCCTAATCTTTCTGTTCAAGCGCCATCTAC,0.24
14,GATGATTGTTCTCCCAGCTGATGAATTCTTTGAGTCGAGTAAACAAATTTTCCTAATCTTTCTGTTCAAGCGCCATCTAC,0.254
15,GATGATTGTTCTCCCAGCTGATGAATTACAGCGGTCGAGTAAACAAATTTTCCTAATCTTTCTGTTCAAGCGCCATCTAC,0.378
16,GATGATTGTTCTCCCAGCTGATGAATTCGGTACATCGAGTAAACAAATTTTCCTAATCTTTCTGTTCAAGCGCCATCTAC,0.578
17,GATGATTGTTCTCCCAGCTGATGAATTCCATAATTCGAGTAAACAAATTTTCCTAATCTTTCTGTTCAAGCGCCATCTAC,0.332
18,GATGATTGTTCTCCCAGCTGATGAATTCCTGTCCTCGAGTAAACAAATTTTCCTAATCTTTCTGTTCAAGCGCCATCTAC,0.302
19,GATGATTGTTCTCCCAGCTGATGAATTTACTGTCTCGAGTAAACAAATTTTCCTAATCTTTCTGTTCAAGCGCCATCTAC,1.38
20,GATGATTGTTCTCCCAGCTGATGAATTGCCCCTATCGAGTAAACAAATTTTCCTAATCTTTCTGTTCAAGCGCCATCTAC,0.532

row,Sequence,binding signal (RPM ratio (pull-down/input))
1,GATGATTGTTCTCCCAGCTGATGAATTCGTTGGCTCGAGTAAACAAATTTTCCTAATCTTTCTGTTCAAGCGCCATCTAC,2.07
2,GATGATTGTTCTCCCAGCTGATGAATTCCCCCCCTCGAGTAAACAAATTTTCCTAATCTTTCTGTTCAAGCGCCATCTAC,0.208
3,GATGATTGTTCTCCCAGCTGATGAATTCACGGAGTCGAGTAAACAAATTTTCCTAATCTTTCTGTTCAAGCGCCATCTAC,0.185
4,GATGATTGTTCTCCCAGCTGATGAATTGGATTACTCGAGTAAACAAATTTTCCTAATCTTTCTGTTCAAGCGCCATCTAC,1.88
5,GATGATTGTTCTCCCAGCTGATGAATTCCTAGTGTCGAGTAAACAAATTTTCCTAATCTTTCTGTTCAAGCGCCATCTAC,0.373
6,GATGATTGTTCTCCCAGCTGATGAATTATTCACGTCGAGTAAACAAATTTTCCTAATCTTTCTGTTCAAGCGCCATCTAC,0.343
7,GATGATTGTTCTCCCAGCTGATGAATTTGATTGTTCGAGTAAACAAATTTTCCTAATCTTTCTGTTCAAGCGCCATCTAC,6.32
8,GATGATTGTTCTCCCAGCTGATGAATTTTTGGTGTCGAGTAAACAAATTTTCCTAATCTTTCTGTTCAAGCGCCATCTAC,0.396
9,GATGATTGTTCTCCCAGCTGATGAATTCAGCGTATCGAGTAAACAAATTTTCCTAATCTTTCTGTTCAAGCGCCATCTAC,1.13
10,GATGATTGTTCTCCCAGCTGATGAATTATGAAGATCGAGTAAACAAATTTTCCTAATCTTTCTGTTCAAGCGCCATCTAC,0.339
11,GATGATTGTTCTCCCAGCTGATGAATTCCTTATGTCGAGTAAACAAATTTTCCTAATCTTTCTGTTCAAGCGCCATCTAC,0.316
12,GATGATTGTTCTCCCAGCTGATGAATTGCCATATTCGAGTAAACAAATTTTCCTAATCTTTCTGTTCAAGCGCCATCTAC,0.952
13,GATGATTGTTCTCCCAGCTGATGAATTACCAATTTCGAGTAAACAAATTTTCCTAATCTTTCTGTTCAAGCGCCATCTAC,0.407
14,GATGATTGTTCTCCCAGCTGATGAATTTCGTATTTCGAGTAAACAAATTTTCCTAATCTTTCTGTTCAAGCGCCATCTAC,2.47
15,GATGATTGTTCTCCCAGCTGATGAATTCAGAGGCTCGAGTAAACAAATTTTCCTAATCTTTCTGTTCAAGCGCCATCTAC,0.387
16,GATGATTGTTCTCCCAGCTGATGAATTGGGATCCTCGAGTAAACAAATTTTCCTAATCTTTCTGTTCAAGCGCCATCTAC,0.346
17,GATGATTGTTCTCCCAGCTGATGAATTTCGAGTGTCGAGTAAACAAATTTTCCTAATCTTTCTGTTCAAGCGCCATCTAC,1.08
18,GATGATTGTTCTCCCAGCTGATGAATTTAGAAGATCGAGTAAACAAATTTTCCTAATCTTTCTGTTCAAGCGCCATCTAC,0.245
19,GATGATTGTTCTCCCAGCTGATGAATTCATCACATCGAGTAAACAAATTTTCCTAATCTTTCTGTTCAAGCGCCATCTAC,0.842
20,GATGATTGTTCTCCCAGCTGATGAATTTTACACATCGAGTAAACAAATTTTCCTAATCTTTCTGTTCAAGCGCCATCTAC,0.439
